The source of these data is ChEMBL document CHEMBL1201862, “PubChem BioAssay data set” (2004).

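The compound was tested at five concentrations on cells cultured in 96-well plates, with a 48-hour exposure period. The concentration for 50% growth inhibition is given as GI50.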 The source made the active and inactive calls. No stated cut-off is given here; in the data, active = GI50 up to about 1.1 µM and inactive = higher.

For this experiment, the system named is NCI-H322M. As to the kind of experiment: NCI anticancer screen, dose series, 48 h.
Turning to `Cc1cc(SCC(=O)c2ccccc2)nc2ccccc12`, the GI50 is inactive: 64 µM.

As to `NCC(=O)Nc1ccc(Cl)cc1C(=O)c1ccc[nH]1`, the GI50 is inactive: 97.1 µM.

Take `O=C1C2CCCC2N1Cc1ccccc1` (configuration not stated): the GI50 was inactive: > 100 µM.

For `O=C1NC(N2CCCCC2)=N/C1=C\c1cccs1`, the GI50 is inactive: > 100 µM.

Take `Cc1ccc(S(=O)(=O)N/C(=C\C=C\c2ccccc2)C(=O)C(C)(C)C)cc1`: the GI50 is inactive: 26.7 µM.

On to `O=C(Cc1ccccc1)NN1C(=O)C(Cl)C1c1cccc([N+](=O)[O-])c1` (configuration not stated), for which the GI50 was inactive: > 100 µM.

Turning to `O=C(O)CNC(=O)C1NC(C(F)(F)F)(C(F)(F)F)OC1(C(F)(F)F)C(F)(F)F` (configuration not stated), the GI50 was inactive: > 100 µM.

Consider `COc1cc(Nc2nc3ccc(C(F)(F)F)cc3nc2-c2ccccc2)cc(OC)c1OC`, for which the GI50 was inactive: 43.4 µM.

Regarding `CCC(=O)N(O)C(C)(C)C`, the GI50 is inactive: > 100 µM.

For the compound `CCOC(=O)NC(=O)c1cn(C2OC(CO)C(O)C2O)c(=O)[nH]c1=O` (configuration not stated), the GI50 was inactive: > 100 µM.

Consider `CC1OC(OC2C(O)COC(OC3C(C)OC(OC4C(OC(=O)[C@]56CCC(C)(C)C[C@@H]5C5=CCC7[C@@]8(C)C[C@H](O)[C@H](OC9OC(CO)C(O)C(OC%10OC(CO)C(O)C(O)C%10O)C9O)[C@@](C)(CO)[C@@H]8CC[C@@]7(C)[C@]5(C)CC6)OCC(O)C4O)C(O)C3OC3OCC(O)C(O)C3O)C2O)C(O)C(O)C1O` (some centres not stated), for which the GI50 is inactive: 6.85 µM.

`CCOC(=O)C1(C#N)OC(=O)c2cnccc21` (configuration not stated): the GI50 was inactive: > 100 µM.

As to `CN=C(n1ccnc1)n1ccnc1`, the GI50 is inactive: > 100 µM.

Consider `c1ccc(CSCCc2ccncc2)cc1`, for which the GI50 was inactive: > 100 µM.

With `NC1=NC2=c3ccccc3=C(c3cnccn3)C2(c2cnccn2)c2ccccc21` (configuration not stated), the GI50 is inactive: > 100 µM.

For `O=C(O)C1C(C(=O)O)C23CC2(C(=O)O)C2(C(=O)O)CCC3=C3CCCC312` (configuration not stated), the GI50 is inactive: 14.3 µM.

Regarding `CC(=O)c1ccc(NC(=O)CSc2nc(C)nc3c2sc(=S)n3-c2ccccc2)cc1`, the GI50 is inactive: > 10 µM.

As for `O=C(Nc1ccn(C2CC(I)C(COC(c3ccccc3)(c3ccccc3)c3ccccc3)O2)c(=O)n1)c1ccccc1` (configuration not stated), the GI50 was inactive: 16.8 µM.

On to `COc1ccc2c3c1OC1c4[nH]c5ccccc5c4CC4(O)C(C2)N(C)CCC314` (configuration not stated), for which the GI50 was inactive: 27.1 µM.

Turning to `O=C1CCCc2c(O)ccc(O)c21`, the GI50 is inactive: > 100 µM.

For `O=P(O)(O)c1ccc(-c2ccc(I)cc2)cc1`, the GI50 is inactive: > 100 µM.

For `Cn1nc(-c2ccccc2)c(N=[N+]=[N-])cc1=O`, the GI50 is inactive: > 100 µM.

Turning to `CN(C)CC1CN/C(=N\C(=O)Nc2ccccc2)O1` (configuration not stated), the GI50 is inactive: > 100 µM.

As to `C=C(CC(=O)Nc1ccc(C(=O)OC)o1)C(=O)OC`, the GI50 was inactive: > 100 µM.

With `COC(=O)C1=C(C(=O)OC)N(c2ccc(OC)cc2[N+](=O)[O-])C(c2ccc(C)cc2)=CC1c1ccc(OC)cc1OC` (configuration not stated), the GI50 was inactive: 27.2 µM.

In the case of `CC(=O)/C(=C/NC(=S)Nc1ccc(Cl)c(Cl)c1)C(=O)Nc1ccccc1C`, the GI50 was inactive: 39.2 µM.

For `CCN(CC)CCn1ccc(=O)c2cc3c(=O)ccn(CCN(CC)CC)c3c(C)c21`, the GI50 was inactive: 4.65 µM.

On to `CN(C)CCCN1c2ccccc2CCc2ccc([N+](=O)[O-])cc21`, for which the GI50 is inactive: 20.2 µM.

As to `O=C(O)CCc1nc2cc3ccccc3cc2[nH]c1=O`, the GI50 is inactive: > 100 µM.

Regarding `O=C1c2ccccc2-c2nnc3c(c21)Cc1ccccc1C3`, the GI50 is inactive: > 10 µM.

On to `O=S(=O)(O)c1ccc(-c2nnc(-c3ccccn3)nc2-c2ccc(S(=O)(=O)O)o2)o1`, for which the GI50 is inactive: > 100 µM.

Regarding `Cn1c(=S)[nH]c(N)c(Cc2ccccc2)c1=O`, the GI50 was inactive: > 100 µM.
